# In all, about 81,000 sequences were measured (“one-hybrid fitness for binding parS DNA”: median about -0.17, highest 2% from about 0.51 on). The list shows a part of the results.
# B1: Caulobacter ParB omega fusion; a variant is named by its letters at X, in order, B8GW30 (parent)
# chain: MESVVVGEPGMSEGRRGLGRGLSALLGEVDAAPAQAPGEQLGGSREAPIEILQRNPDQPRRTFREEDLEDLSNSIREKGVLQPILVRPSPDTAGEYQIVAGERAWRAAQRAGLKTVPIMVRELDDLAVLEIGIIENVQRADLNVLEEALSYKVLMEKFERTQENIAQTIGKSXSHVANXMRLLXLPDEVQSYLVSGELTAXHARAIAAAADPVALAKQIIEGGLSVRETEALARKAPNLSAGKSKGGRPPRVKDTDTQALESDLSSVLGLDVSIDHRGSTGTLTITYATLEQLDDLCNRLTRGI
# Variants of: B1
# Assay: one-hybrid fitness for binding parS DNA (scaled: cognate 1, non-cognate 0); higher = stronger binding
# Conditions: with parS DNA site
# In short: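 Caulobacter ParB libraries with four specificity codons randomised were screened by bacterial one-hybrid selection in the E. coli USO strain, using a HIS3 reporter whose site lies 19 bp from the promoter. Selection ran for 48 hours at 37°C on M9 lacking histidine, with 0.1 mM IPTG and 5 mM 3-AT. Plasmids were Illumina-sequenced before and after selection, three replicate libraries were pooled, and variants with under 10 reads were dropped. Fitness is the log change in each variant's read ratio to wild type, rescaled against the cognate and non-cognate sites.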
row,Variant,one-hybrid fitness for binding parS DNA
1,WLNR,≤ 0.2
2,HTKR,≤ 0.2
3,NGKV,≤ 0.2
4,ATVF,≤ 0.2
5,SVGN,≤ 0.2
6,TPLR,≤ 0.2
7,PQTL,≤ 0.2
8,EANT,≤ 0.2
9,WCYC,≤ 0.2
10,NTLP,≤ 0.2
11,VNER,≤ 0.2
12,NVMG,≤ 0.2
13,QQCF,≤ 0.2
14,AKAI,≤ 0.2
15,NSDA,≤ 0.2
16,HYGR,≤ 0.2
17,QDTM,≤ 0.2
18,SGIK,≤ 0.2
19,VFGS,≤ 0.2
20,RNHL,≤ 0.2
21,GITD,≤ 0.2
22,FIHR,≤ 0.2
23,DDHK,≤ 0.2
24,EAPR,≤ 0.2
25,CTHC,≤ 0.2

row,Variant,one-hybrid fitness for binding parS DNA
1,VSAR,≤ 0.2
2,QDGT,≤ 0.2
3,NGKS,≤ 0.2
4,RCAK,≤ 0.2
5,RFVG,0.77
6,TICT,≤ 0.2
7,EALH,≤ 0.2
8,HFVC,≤ 0.2
9,QIQT,≤ 0.2
10,RVWH,≤ 0.2
11,HWEG,≤ 0.2
12,SQAM,≤ 0.2
13,QGHS,≤ 0.2
14,PSYG,≤ 0.2
15,TVVI,≤ 0.2
16,RTYQ,≤ 0.2
17,SNKC,≤ 0.2
18,LEDR,≤ 0.2
19,TIQE,≤ 0.2
20,WFTT,≤ 0.2
21,MAYM,≤ 0.2
22,HTAC,≤ 0.2
23,TGYW,≤ 0.2
24,RQLL,≤ 0.2
25,KHAT,≤ 0.2

row,Variant,one-hybrid fitness for binding parS DNA
1,VPAG,≤ 0.2
2,HKKM,≤ 0.2
3,KALE,≤ 0.2
4,GDMR,≤ 0.2
5,QEFY,≤ 0.2
6,ESCS,≤ 0.2
7,DHRL,≤ 0.2
8,HYGL,≤ 0.2
9,AWWR,≤ 0.2
10,LHDR,≤ 0.2
11,VRII,≤ 0.2
12,QRGQ,≤ 0.2
13,KIFC,≤ 0.2
14,RKGN,0.429
15,RLFC,0.948
16,DFRG,≤ 0.2
17,QMPT,≤ 0.2
18,AHLL,≤ 0.2
19,GNRV,≤ 0.2
20,TREG,≤ 0.2
21,GCPL,≤ 0.2
22,QVGP,≤ 0.2
23,TDFC,≤ 0.2
24,ALEY,≤ 0.2
25,VPWY,≤ 0.2

row,Variant,one-hybrid fitness for binding parS DNA
1,LSNW,≤ 0.2
2,KMLS,≤ 0.2
3,QKSY,≤ 0.2
4,EKQN,≤ 0.2
5,YIDT,≤ 0.2
6,LKTT,≤ 0.2
7,IRQL,≤ 0.2
8,YDRI,≤ 0.2
9,PHTR,≤ 0.2
10,DPRS,≤ 0.2
11,FYLS,≤ 0.2
12,HIPY,≤ 0.2
13,WWAG,≤ 0.2
14,EAPI,≤ 0.2
15,QIEV,≤ 0.2
16,VYGG,≤ 0.2
17,SRFW,≤ 0.2
18,CAVV,≤ 0.2
19,CWAG,≤ 0.2
20,IQLR,≤ 0.2
21,KDCY,≤ 0.2
22,AVEL,≤ 0.2
23,QLYK,≤ 0.2
24,GRHT,≤ 0.2
25,RQVE,≤ 0.2

row,Variant,one-hybrid fitness for binding parS DNA
1,VSIA,≤ 0.2
2,LTGQ,≤ 0.2
3,WCLP,≤ 0.2
4,QPED,≤ 0.2
5,HESP,≤ 0.2
6,TVHF,≤ 0.2
7,PWCE,≤ 0.2
8,DGGG,≤ 0.2
9,RIPW,≤ 0.2
10,FFAR,≤ 0.2
11,VHIR,≤ 0.2
12,VYIR,≤ 0.2
13,VTVK,≤ 0.2
14,MMRL,≤ 0.2
15,FHQS,≤ 0.2
16,RDKA,≤ 0.2
17,PRPS,≤ 0.2
18,KYNR,≤ 0.2
19,QSVH,≤ 0.2
20,FYPI,≤ 0.2
21,LIIQ,≤ 0.2
22,GKPR,≤ 0.2
23,FTAC,≤ 0.2
24,PHNM,≤ 0.2
25,QRDI,≤ 0.2

row,Variant,one-hybrid fitness for binding parS DNA
1,FSQL,≤ 0.2
2,TMGG,≤ 0.2
3,HLIM,≤ 0.2
4,QSFC,≤ 0.2
5,LAKE,≤ 0.2
6,LRTK,≤ 0.2
7,TPKT,≤ 0.2
8,QWKA,≤ 0.2
9,KISG,≤ 0.2
10,VAKS,≤ 0.2
11,QWRI,≤ 0.2
12,VWYL,≤ 0.2
13,SIHK,≤ 0.2
14,MRSL,≤ 0.2
15,QSTG,≤ 0.2
16,AYGG,≤ 0.2
17,QYEY,≤ 0.2
18,RIVA,0.585
19,PPRK,≤ 0.2
20,CHSS,≤ 0.2
21,NKRG,≤ 0.2
22,MGAE,≤ 0.2
23,TAVK,≤ 0.2
24,DHPH,≤ 0.2
25,SIRT,≤ 0.2

row,Variant,one-hybrid fitness for binding parS DNA
1,PSLM,≤ 0.2
2,LHMG,≤ 0.2
3,KTDR,≤ 0.2
4,QFPL,≤ 0.2
5,GLAL,≤ 0.2
6,CMNG,≤ 0.2
7,VSMR,≤ 0.2
8,LAKV,≤ 0.2
9,IRLS,≤ 0.2
10,TTII,≤ 0.2
11,VSEK,≤ 0.2
12,PHDR,≤ 0.2
13,SLIL,≤ 0.2
14,ATSQ,≤ 0.2
15,RSFI,≤ 0.2
16,WEEG,≤ 0.2
17,IRSL,≤ 0.2
18,ARHT,≤ 0.2
19,VIQG,≤ 0.2
20,RTYT,0.952
21,NKNY,≤ 0.2
22,TQRR,≤ 0.2
23,VPTG,≤ 0.2
24,MATV,≤ 0.2
25,MYRT,≤ 0.2

row,Variant,one-hybrid fitness for binding parS DNA
1,VTRR,≤ 0.2
2,GDRC,≤ 0.2
3,PGYA,≤ 0.2
4,FCSY,≤ 0.2
5,GRTL,≤ 0.2
6,HQMT,≤ 0.2
7,ADAR,≤ 0.2
8,WSQK,≤ 0.2
9,LSHF,≤ 0.2
10,WWGG,≤ 0.2
11,YGLN,≤ 0.2
12,QQPT,≤ 0.2
13,IRPT,≤ 0.2
14,ITAK,≤ 0.2
15,RLSQ,≤ 0.2
16,ACLR,≤ 0.2
17,LIQN,≤ 0.2
18,TSHC,≤ 0.2
19,TYPG,≤ 0.2
20,HLHI,≤ 0.2

# Source: a collection of fitness landscapes (doi:10.1016/j.celrep.2020.107928)
